{
  "source": "PubChem BioAssay AID485281",
  "about": "(National Center for Advancing Translational Sciences (NCATS), 2010)",
  "note": "Where “and” joins values, the source holds several entries; their conditions need not be identical. Equal values may be shown once. The campaign covered roughly 350,000 compounds. About 260 (0.074%) were called active. This list was built around the results that the source calls inconclusive (neither active nor inactive); the mix of calls is not that of the screen. Calls follow the shape of the dose curve; as a rule, active = well fitted inhibition curve with a large enough effect; inconclusive = small, poorly fitted or top-dose-only effect; inactive = no such curve, though single readings can be large or run the other way. Where the call is inconclusive, the potency comes from a doubtful curve fit. % is scaled to controls: 0 for no effect and ±100 for the full control effect; potency is read from the fitted curve at half-maximal effect; tags tell the direction and shape of the fitted curve.",
  "data": [
    {"biological_target": "Ferritin light chain (Equus caballus) (UniProt P02791)", "sequence (P02791 whole entry, looked up)": "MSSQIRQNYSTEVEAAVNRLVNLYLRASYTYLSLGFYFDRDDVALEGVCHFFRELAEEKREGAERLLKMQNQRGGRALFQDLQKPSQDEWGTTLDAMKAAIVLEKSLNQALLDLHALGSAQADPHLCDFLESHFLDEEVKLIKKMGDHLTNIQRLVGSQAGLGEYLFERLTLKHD", "experiment": "qHTS Assay for Identification of Novel General Anesthetics; also: nearly all actives have a fitted effect of over 20% in size", "details": "apoferritin/1-aminoanthracene competitive binding, fluorescence; activity change, negative = displacement: at 77.5 µM (top of the series)", "procedure,_shortened": "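Concentration-response curves derived by four-parameter Hill fitting of normalized fluorescence, where compounds displaced 1-AMA from 10 uM horse apoferritin following a brief 10 min room-temperature incubation; propofol titration acted as positive control.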", "values": [
      {"smiles": "O=C(CCN1CCN(c2ccccc2F)CC1)Nc1cccc(F)c1", "activity change, negative = displacement": "inactive: -10.5%"},
      {"smiles": "Clc1cccc(CNc2cc(-c3ccccc3)nc3nncn23)c1", "Potency": "inconclusive: 31.6 µM [inhibitor, partial curve]"},
      {"smiles": "Cc1ccc(C)c(OCc2cc(C(=O)N3CCOCC3)no2)c1", "activity change, negative = displacement": "inactive: -11.1%"},
      {"smiles": "Cc1cc(Nc2cccc(Cl)c2)nc(NCc2ccccc2)n1", "Potency": "inconclusive: 39.8 µM [inhibitor, single point]"},
      {"smiles": "Cc1c(C)c2ccc(OCC(=O)Nc3ccc(N4CCC(C)CC4)cc3)cc2oc1=O", "activity change, negative = displacement": "inactive: -22.5%"},
      {"smiles": "CCC(C(=O)Nc1nc(C)c(C)s1)c1ccccc1", "note": "(stereo not given)", "Potency": "inconclusive: 22.4 µM [inhibitor, partial curve]"},
      {"smiles": "COc1ccc(C2CC(=O)N3CN(c4ccccc4F)CSC3=C2C#N)cc1OC", "note": "(stereo not given)", "activity change, negative = displacement": "inactive: -5.02%"},
      {"smiles": "CC(=O)n1nnc2ccccc21", "activity change, negative = displacement": "inactive: 4.59%"},
      {"smiles": "CCN=C1S/C(=C\\c2cc(OCC)c(O)cc2Br)C(=O)N1CC", "activity change, negative = displacement": "inactive: 7.39%"},
      {"smiles": "Cc1noc(C)c1COC(=O)/C=C/c1ccc(Cl)cc1", "Potency": "inconclusive: 35.5 µM [inhibitor, partial curve]"},
      {"smiles": "FC(F)(F)Oc1ccc2c(c1)NC(c1ccncc1)=NC(c1cccs1)=N2", "Potency": "inconclusive: 35.5 µM [inhibitor, partial curve, poor fit]"},
      {"smiles": "C=Cc1ccc(Cn2c(C)c(CNCCc3ccccc3C)c(C(=O)O)c2C)cc1", "Potency": "inconclusive: 25.1 µM [inhibitor, partial curve]"},
      {"smiles": "Cc1cc(C)c(C#N)c(OCC(=O)c2ccccc2)n1", "Potency": "inconclusive: 20 µM [inhibitor, partial curve]"},
      {"smiles": "Cc1ccc(NC(=O)CCSc2nc(-c3ccco3)cc(C(F)(F)F)n2)cc1F", "Potency": "inconclusive: 0.794 µM [inhibitor, full curve]"},
      {"smiles": "COc1ccc(/C=N/NC(=O)c2ccc(NC(=O)C3CCCCC3)cc2)cc1O", "Potency": "inconclusive: 15.8 µM [inhibitor, partial curve]"},
      {"smiles": "CCOC(=O)N1CCN(Cc2nc3cc(NC(=O)c4ccc(OC)cc4)ccc3n2C(C)C)CC1", "Potency": "inconclusive: 35.5 µM [inhibitor, single point]"},
      {"smiles": "COc1ccc(C)cc1Nc1n[n+](-c2ccccc2)c(-c2c(Cl)cccc2Cl)s1", "Potency": "inconclusive: 31.6 µM [inhibitor, partial curve]"},
      {"smiles": "CCCCOc1ccc(C(=O)N2CCCC2)cc1", "Potency": "inconclusive: 22.4 µM [inhibitor, partial curve]"},
      {"smiles": "O=C(Nc1ccc(Oc2ccccc2)cc1)c1ccco1", "Potency": "inconclusive: 25.1 µM [inhibitor, partial curve]"},
      {"smiles": "CC(C)c1ccc(NC(=O)c2ccc(F)c(S(=O)(=O)N3CCc4ccccc4C3)c2)cc1", "activity change, negative = displacement": "inactive: 6.22%"},
      {"smiles": "CC(C)NS(=O)(=O)c1ccc(NC(=O)C2CC3C=CC2C3)cc1", "note": "(stereo not given)", "Potency": "inconclusive: 50.1 µM [inhibitor, single point]"},
      {"smiles": "CN(C)c1ccc(/C=C(\\C#N)C(=O)Nc2nc3c(s2)CCN(Cc2ccccc2)C3)cc1", "activity change, negative = displacement": "inactive: -17.6%"},
      {"smiles": "CCOc1ccc(NC(=O)CC2C(=O)N(c3ccc(C)cc3)C(=O)N2CCC2=CCCCC2)cc1", "note": "(stereo not given)", "activity change, negative = displacement": "inactive: 37.5%"},
      {"smiles": "Cc1ccc(NC(=O)c2cc([N+](=O)[O-])ccc2NCc2cccnc2)cc1Cl", "Potency": "inconclusive: 20 µM [inhibitor, partial curve]"},
      {"smiles": "NC(=O)COc1ccccc1/C=C1/SC(=O)N(CC(=O)N2CCc3ccccc3C2)C1=O", "Potency": "inconclusive: 17.8 µM [inhibitor, partial curve]"},
      {"smiles": "O=C(CCCCCN1C(=O)c2ccccc2C1=O)NCCc1nc2ccccc2[nH]1", "Potency": "inconclusive: 39.8 µM [inhibitor, partial curve]"},
      {"smiles": "O=C(COC(=O)CNC(=O)C1CCCCC1)Nc1ccc2c(c1)OCCO2", "Potency": "inconclusive: 14.1 µM [inhibitor, partial curve]"},
      {"smiles": "C=C(c1ccccc1Cl)[n+]1ccccc1", "activity change, negative = displacement": "inactive: -13.1%"},
      {"smiles": "Cc1ccccc1CN1C(=O)C2(c3ccccc31)N(c1ccccc1)C(=O)CS2(=O)=O", "note": "(stereo not given)", "Potency": "inconclusive: 11.2 µM [inhibitor, single point]"},
      {"smiles": "O=C(Nc1ccc(N2CCCCC2)c(Cl)c1)c1cccnc1", "Potency": "inconclusive: 44.7 µM [inhibitor, partial curve]"},
      {"smiles": "NCC1CCCCC1CC(=O)O", "note": "(stereo not given)", "activity change, negative = displacement": "inactive: 4.07%"},
      {"smiles": "Cc1cccc(C(=O)NCC(=O)OCc2cc(=O)n3nc(C4CCCCC4)sc3n2)c1", "activity change, negative = displacement": "inactive: 1.75%"},
      {"smiles": "CC(=O)c1cnc(SCc2ccc(Cl)cc2)nc1C", "Potency": "inconclusive: 35.5 µM [inhibitor, partial curve]"},
      {"smiles": "COC1C=CO[C@@]2(C)Oc3c(C)c(O)c4c(O)c(c5c(nc6cc(C)ccn65)c4c3C2=O)NC(=O)/C(C)=C\\C=CC(C)C(O)[C@@H](C)C(O)C(C)[C@@H](OC(C)=O)C1C", "note": "(stereo not given in full)", "Potency": "inconclusive: 7.94 µM [inhibitor, partial curve]"},
      {"smiles": "O=C(c1cc(-c2ccco2)on1)N1CCN(C(c2ccccc2)c2ccccc2)CC1", "Potency": "inconclusive: 3.55 µM [inhibitor, full curve, poor fit]"},
      {"smiles": "CC(C)c1ccc(N2C(=O)C3C4C=CC(CC4)C3C2=O)cc1", "note": "(stereo not given)", "Potency": "inconclusive: 10 µM [inhibitor, full curve]"},
      {"smiles": "Cc1nc2ccccn2c1C(=O)CSc1cccc(Cl)c1", "Potency": "inconclusive: 39.8 µM [inhibitor, partial curve]"},
      {"smiles": "CC(=O)c1ccc(NC(=O)CCCSc2nc(-c3ccco3)cc(C(F)(F)F)n2)cc1", "Potency": "inconclusive: 14.1 µM [inhibitor, partial curve]"},
      {"smiles": "CCN(c1cccc(C)c1)S(=O)(=O)c1ccc(OC)c([N+](=O)[O-])c1", "Potency": "inconclusive: 31.6 µM [inhibitor, partial curve]"},
      {"smiles": "Oc1ccc(NCc2ccccc2OCc2ccccc2F)cc1", "Potency": "inconclusive: 28.2 µM [inhibitor, partial curve] and inconclusive: 15.8 µM [inhibitor, partial curve]"},
      {"smiles": "Cc1ccc(OCCCCn2cnc3ccccc32)c(C)c1", "activity change, negative = displacement": "inactive: -21.3%"},
      {"smiles": "Cc1ccccc1OCC1CNC(=O)O1", "note": "(stereo not given)", "activity change, negative = displacement": "inactive: -7.44%"},
      {"smiles": "CCN(Cc1ccccc1)S(=O)(=O)c1cc(C(=O)NC2CCCCCC2)ccc1OC", "activity change, negative = displacement": "inactive: 40.8%"},
      {"smiles": "CCOC(=O)c1cccc(Nc2cc(-c3ccccc3)ncn2)c1", "activity change, negative = displacement": "inactive: 40.9%"},
      {"smiles": "COc1ccc(-c2c3c(=O)n(C)c(=O)n(C)c3cn2C2CCCCC2)cc1", "Potency": "inconclusive: 39.8 µM [inhibitor, single point]"},
      {"smiles": "CCC(C)/C(C)=N/NC(=O)CNS(=O)(=O)c1ccc([N+](=O)[O-])cc1", "note": "(stereo not given)", "Potency": "inconclusive: 15.8 µM [inhibitor, partial curve]"},
      {"smiles": "CC(C)(C)c1cc(OC(=O)C2CCCC2)ccc1O", "Potency": "inconclusive: 35.5 µM [inhibitor, partial curve]"},
      {"smiles": "CCOC(=O)c1[nH]c2ccc(OC)cc2c1NC(=O)CN1CCSCC1", "activity change, negative = displacement": "inactive: -3.61%"},
      {"smiles": "CC(=O)c1ccc(Nc2cc(C)nc3nc(Cc4ccc(Cl)cc4)nn23)cc1", "Potency": "inconclusive: 35.5 µM [inhibitor, partial curve]"},
      {"smiles": "CCCCOC(=O)CCCc1ccc([N+](=O)[O-])cc1[N+](=O)[O-]", "Potency": "inconclusive: 35.5 µM [inhibitor, partial curve]"},
      {"smiles": "CCn1nc(C)c(C(=O)Nc2cc(Oc3ccc(Cl)cc3)cc([N+](=O)[O-])c2)c1C", "Potency": "inconclusive: 15.8 µM [inhibitor, partial curve]"},
      {"smiles": "Cc1ccc(O)c(NC(=O)C2CCCCC2)c1", "Potency": "inconclusive: 28.2 µM [inhibitor, single point]"},
      {"smiles": "Cc1ccc(Cn2cc(S(=O)(=O)c3cccc(Cl)c3)c(=O)c3cc(F)c(N4CCOCC4)cc32)cc1", "Potency": "inconclusive: 12.6 µM [inhibitor, single point]"},
      {"smiles": "COc1cccc(C(=O)NCC(=O)N/N=C(C)\\C=C\\c2ccccc2)c1", "Potency": "inconclusive: 28.2 µM [inhibitor, partial curve]"},
      {"smiles": "Cc1cc(C)nc(N/N=C/c2ccccc2)n1", "activity change, negative = displacement": "inactive: -10.7%"},
      {"smiles": "CCOC(=O)c1ccc(-c2cccc(-c3cc(=O)oc4cc(OC)cc(OC)c34)c2)cc1", "activity change, negative = displacement": "inactive: -5.14%"},
      {"smiles": "O=c1[nH]c(SCc2ccccc2F)nc2ccccc12", "Potency": "inconclusive: 3.55 µM [inhibitor, full curve]"},
      {"smiles": "CCC1CCCCN1S(=O)(=O)Cc1ccccc1Cl", "note": "(stereo not given)", "Potency": "inconclusive: 50.1 µM [inhibitor, single point]"},
      {"smiles": "O=C(Nc1cccc(-c2cn3ccsc3n2)c1)c1ccccc1", "Potency": "inconclusive: 28.2 µM [inhibitor, partial curve, poor fit]"},
      {"smiles": "CCOC(=O)c1c(C)[nH]c(C(=O)COC(=O)CN2C(=O)C3CCCCC3C2=O)c1C", "note": "(stereo not given)", "Potency": "inconclusive: 12.6 µM [inhibitor, partial curve]"},
      {"smiles": "C/C(CC1CC(C)(C)OC1=O)=N\\NC(N)=S", "note": "(stereo not given)", "activity change, negative = displacement": "inactive: 3.88%"},
      {"smiles": "NS(=O)(=O)c1ccc(CNS(=O)(=O)c2cc(Cl)ccc2Cl)cc1", "activity change, negative = displacement": "inactive: 3.29%"},
      {"smiles": "CC(C)(C)c1ccc(O)c(N)c1", "Potency": "inconclusive: 28.2 µM [inhibitor, partial curve]"},
      {"smiles": "CCOC(=O)C1CCN(S(=O)(=O)C(F)(F)c2nc3ccccc3s2)CC1", "Potency": "inconclusive: 28.2 µM [inhibitor, partial curve]"},
      {"smiles": "COc1ccc2nc(NC(=O)c3ccoc3C)sc2c1", "activity change, negative = displacement": "inactive: -1.05%"},
      {"smiles": "CNC(=S)N1CCN(S(=O)(=O)c2ccc3ccccc3c2)CC1", "activity change, negative = displacement": "inactive: -21.3%"},
      {"smiles": "Cc1cccc(C)c1NC(=S)Nc1ccc(Cl)c(Cl)c1", "Potency": "inconclusive: 25.1 µM [inhibitor, partial curve]"},
      {"smiles": "CCOC(=O)N1CCN(C(=O)c2ccc3c(c2)N(Cc2cc(C)ccc2C)C(=O)c2ccccc2S3=O)CC1", "note": "(stereo not given)", "Potency": "inconclusive: 14.1 µM [inhibitor, partial curve]"},
      {"smiles": "O=C1c2[nH]nc(-c3ccccc3)c2C(c2ccccc2)N1c1cccc(C(F)(F)F)c1", "note": "(stereo not given)", "Potency": "inconclusive: 10 µM [inhibitor, full curve]"},
      {"smiles": "O=C1SC(Nc2ccc(Cl)cc2)C(=O)N1Cc1ccccc1", "note": "(stereo not given)", "Potency": "inconclusive: 35.5 µM [inhibitor, partial curve]"}
    ]}
  ]
}
